# Measured values taken from the supplement of paper PMC8183993.
# “And” between values parts separate entries of the source, which are not always exact repeats. Equal values may be shown once. Where a name gives a salt, the structure may show the parent alone. ± gives the standard deviation of the averaged measurements. Over roughly 3,200 compounds, “nuclei count (viability) relative to DMSO” has its median near 99; the lowest 2% begin near 16. Some of the results follow.
# System: U2OS
# Assay: nuclei count (viability) relative to DMSO (% of DMSO); higher = more viable cells
# Conditions: 10 µM; 24 h
# Experimental: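 Primary image-based screen in U2OS cells: compounds at 10 uM for 24 h, then a 1 h o-propargyl-puromycin (OPP) pulse, click labelling, and high-throughput microscopy. Mean cytoplasmic OPP intensity and nuclei count were normalised to DMSO wells within each plate (DMSO = 100) and averaged over triplicate plates.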
row,Structure (SMILES),nuclei count
1,c1ccc2[nH]c(-c3cscn3)nc2c1 [Tiabendazole],108
2,CN1[C@@H](CC(=O)c2ccccc2)CCC[C@H]1C[C@H](O)c1ccccc1 [Lobeline hydrochloride],71.4
3,CCC(CC)CC1(C(=O)Nc2ccccc2SC(=O)C(C)C)CCCCC1 [Dalcetrapib (JTT-705)],84.5
4,COC1=C2C[C@@H](C)C[C@H](OC)[C@H](O)[C@@H](C)/C=C(\C)[C@H](OC(N)=O)[C@@H](OC)/C=C\C=C(/C)C(=O)NC(=CC1=O)C2=O [Geldanamycin],54 ± 5.5
5,CCOC(=O)c1ncc2[nH]c3cccc(OC(C)C)c3c2c1C,95.3
6,CN1CC2c3ccccc3Oc3ccc(Cl)cc3C2C1 (configuration not stated) [Asenapine maleate],104 ± 13
7,CN1CC2c3ccccc3Oc3ccc(Cl)cc3C2C1 (configuration not stated) [Asenapine],105
8,CNC(=O)Nc1ccc(-c2nc(N3CC4CCC(C3)O4)c3cnn(C4CCC5(CC4)OCCO5)c3n2)cc1,88.1
9,CC1CS(=O)(=O)CCN1/N=C/c1ccc([N+](=O)[O-])o1 (configuration not stated) [Nifurtimox],103
10,CNC1(C)C2CCC(C2)C1(C)C (configuration not stated) [Mecamylamine hydrochloride],115
11,Cc1c(Cn2c(C)nc3c(C(=O)O)cc(N4CCOCC4)cc32)cccc1C(F)(F)F,101 ± 1.8
12,CCCc1nc(C(C)(C)O)c(C(=O)OCc2oc(=O)oc2C)n1Cc1ccc(-c2ccccc2-c2nnn[nH]2)cc1 [Olmesartan medoxomil (Benicar)],101
13,Cn1c(=O)c2c(ncn2CC(O)CO)n(C)c1=O (configuration not stated) [Diprophylline],108
14,NC(=O)c1cccnc1 [Nicotinamide],107 ± 2.6
15,CCC(C)(CN(C)C)OC(=O)c1ccccc1 (configuration not stated) [Amyleine hydrochloride],107
16,CC(=C(CCO)SSCC1CCCO1)N(C=O)Cc1cnc(C)nc1N (stereo in doubt) [Fursultiamine Hydrochloride],102
17,C=C(NC(=O)C(=C)NC(=O)c1csc(C2=N[C@@H]3c4csc(n4)[C@H]4NC(=O)c5csc(n5)[C@H]([C@](C)(O)[C@@H](C)O)NC(=O)[C@H]5CSC(=N5)/C(=C/C)NC(=O)[C@H]([C@@H](C)O)NC(=O)c5csc(n5)[C@]3(CC2)NC(=O)[C@H](C)NC(=O)C(=C)NC(=O)[C@H](C)NC(=O)[C@H]([C@@H](C)CC)N[C@@H]2C=Cc3c([C@H](C)O)cc(nc3[C@H]2O)C(=O)O[C@@H]4C)n1)C(N)=O [Thiostrepton],16.2
18,CN(CCOc1ccc(-c2ccc3c(c2)OCO3)cc1C(C)(C)C)CC(=O)O,98
19,CC(C)(Oc1ccc(C2CC2(Cl)Cl)cc1)C(=O)O (configuration not stated) [Ciprofibrate],98.5
20,N[C@@H](CSS(=O)(=O)O)C(=O)O [S-Sulfo-L-cysteine sodium salt],103
21,Nc1nc(Nc2ccc(S(N)(=O)=O)cc2)nn1C(=O)c1c(F)cccc1F,40.5
22,CC(C)c1onc(-c2c(Cl)cccc2Cl)c1COc1ccc(/C=C/c2cccc(C(=O)O)c2)c(Cl)c1,109 and 96
23,C[C@@]1(O)[C@H](O)[C@@H](CO)O[C@H]1n1cnc2c(NC3CCCC3)nc(Cl)nc21,96
24,C=CCN1CCCC1CNC(=O)c1cc2nn[nH]c2cc1OC (configuration not stated) [Alizapride HCl],106
25,NC(=O)[C@@H](CCC(F)(F)F)N(Cc1ccc(-c2ncon2)cc1F)S(=O)(=O)c1ccc(Cl)cc1,99
26,COc1ccc(CNCc2cccc3ccccc23)cc1,95.9

row,Structure (SMILES),nuclei count
1,Cc1[nH]c(/C=C2\C(=O)Nc3ccc(S(=O)(=O)Cc4c(Cl)cccc4Cl)cc32)c(C)c1C(=O)N1CCC[C@@H]1CN1CCCC1,76 and 28
2,N#CC(=C(/N)Sc1ccccc1N)/C(C#N)=C(\N)Sc1ccccc1N,96.4
3,CC1=C(C(=O)O)N2C(=O)[C@@H](NC(=O)[C@H](N)c3ccc(O)cc3)[C@H]2SC1 [Cefadroxil],107
4,CC(O)(C(=O)Nc1ccc(S(=O)(=O)c2ccccc2)cc1)C(F)(F)F (configuration not stated),128 and 105
5,"C1CCC2(CC1)CCNCC2 [4,4-Pentamethylenepiperidine hydrochloride]",97.9
6,CC1=C(C(=O)OCCN(Cc2ccccc2)c2ccccc2)C(c2cccc([N+](=O)[O-])c2)C(P2(=O)OCC(C)(C)CO2)=C(C)N1 (configuration not stated) [Efonidipine hydrochloride monoethanolate],99.9
7,CC(CCc1ccc(O)cc1)NCCc1ccc(O)c(O)c1 (configuration not stated) [Dobutamine hydrochloride],96.1 ± 6
8,CCCNS(=O)(=O)Nc1ncnc(OCCOc2ncc(Br)cn2)c1-c1ccc(Br)cc1 [Macitentan],104
9,CC1CCN(CCCC(=O)c2ccc(F)cc2)CC1 [Melperone hydrochloride],98.9
10,COc1cc2ncnc(Nc3ccc(Oc4ccccc4)cc3)c2cc1OC,84.3
11,Nc1ccc(S(N)(=O)=O)cc1 [Sulfanilamide],101
12,CCN1CCC[C@H]1CNC(=O)c1cc(S(N)(=O)=O)ccc1OC [(S)-(-)-Sulpiride],104
13,CCN1CCC[C@H]1CNC(=O)c1cc(S(N)(=O)=O)ccc1OC [Levosulpiride (Levogastrol)],102
14,Clc1ccc(-c2nc3sccn3c2/C=N/OCc2ccc(Cl)c(Cl)c2)cc1,98.1 ± 4.4
15,O=C1C(Cl)=C(NCCN2CCOCC2)C(=O)c2ncccc21,5.89
16,CCOc1nc2cccc(C(=O)OC(C)OC(=O)OC3CCCCC3)c2n1Cc1ccc(-c2ccccc2-c2nn[nH]n2)cc1 (configuration not stated) [Candesartan cilexetil (Atacand)],100
17,COc1ccc(-c2cc3c(C)nc(N)nc3n([C@H]3CC[C@H](OCCO)CC3)c2=O)cn1,52.2
18,Cn1c(=O)c(F)c(Nc2ccc(I)cc2F)c2c(=O)n(C[C@@H](O)CO)cnc21,82.9
19,CC[C@]12CCCN3CCc4c(n(c5ccccc45)[C@@](O)(C(=O)OC)C1)[C@@H]32 [Vincamine],97.5
20,CSc1ccc(/C=C2/C(C)=C(CC(=O)O)c3cc(F)ccc32)cc1 [Sulindac Sulfide],99
21,CCC(C)(C)c1ccc(CC(C)CN2C[C@@H](C)O[C@@H](C)C2)cc1 (some centres not stated) [Amorolfine HCl],84.5
22,CCOC(=O)c1ccc(C#Cc2ccc3c(c2)C(C)(C)CCS3)nc1 [Tazarotene (Avage)],107
23,CC(C)(C)C#Cc1cc(N(C(=O)[C@H]2CC[C@H](C)CC2)[C@H]2CC[C@H](O)CC2)c(C(=O)O)s1,104
24,CC(C)N(CCC(=O)c1ccc2ccccc2c1)Cc1ccccc1,93.5 and 97.8
25,O=C(O)c1cc(=O)c2c(OCC(O)COc3cccc4oc(C(=O)O)cc(=O)c34)cccc2o1 [Cromolyn disodium salt],100
26,CS(=O)(=O)c1ccc(Cn2c3c(c4cc(F)cc(F)c42)CCCC3CC(=O)O)cc1 (configuration not stated),108

row,Structure (SMILES),nuclei count
1,Cc1c(CC(C)(C)C(=O)O)n(Cc2ccc(Cl)cc2)c2ccc(F)cc12,102
2,C/N=C(/NC#N)NCCSCc1csc(NC(=N)N)n1 [Tiotidine],108
3,CCN1/C(=C/C(C)=O)Sc2ccc(OC)cc21,106
4,CC(=O)OC(C)C[N+](C)(C)C (configuration not stated) [Methacholine chloride],107
5,CCCCOc1ccc(CC(=O)NO)cc1 [Bufexamac],95.9
6,C=CCc1ccccc1OCC(O)CNC(C)C (configuration not stated) [Alprenolol hydrochloride],109
7,NC[C@H]1CC[C@H](C(=O)O)CC1 [Tranexamic acid],95
8,Cc1ccc(O)c([C@H](CCN(C(C)C)C(C)C)c2ccccc2)c1 [Tolterodine tartrate (Detrol LA)],102
9,CCCCC[C@H](CC(=O)NO)C(=O)N[C@H](C(=O)N1CCC[C@H]1CO)C(C)C [Actinonin],95.2
10,Cc1cccc(Nc2nc(-c3ccncc3)cs2)c1,85.3
11,CN(C)CCC(c1ccccc1)c1ccccn1 (configuration not stated) [Pheniramine maleate],103
12,O=[N+]([O-])c1cc(Cl)ccc1S(=O)(=O)N1CCN(Cc2ccccc2)CC1,117
13,CCCCc1nn(-c2ccccc2C(F)(F)F)c(=O)n1Cc1ccc(-c2ccccc2S(=O)(=O)NC(=O)c2sccc2C)cc1,101
14,CCSc1ccc2c(c1)N(CCCN1CCN(C)CC1)c1ccccc1S2 [Thiethylperazine dimalate],94.6
15,CSCCC(C=O)NC(=O)C(CC(C)C)NC(=O)[C@H](CC(C)C)NC(C)=O (some centres not stated) [Calpain Inhibitor II (ALLM)],102
16,O=c1cc(CN2CCOCC2)occ1OCCCCCSc1ccnc2cc(C(F)(F)F)ccc12,102
17,CCCCCCCCCC(=O)N[C@@H](CCCN=C(N)N)C(=O)N[C@H](C(=O)N[C@@H](CCCCN)C(=O)N[C@@H](CCCN=C(N)N)C(=O)CCl)C(C)C,99.8
18,CCOc1ccc(Cc2cc([C@@H]3O[C@H](CO)[C@@H](O)[C@H](O)[C@H]3O)ccc2Cl)cc1 [Dapagliflozin],106
19,CN(C)CCN1C(=O)c2cccc3cc(N)cc(c23)C1=O [Amonafide],41.9
20,CCN(CC)CCNC(=O)c1c(C)[nH]c(/C=C2\C(=O)Nc3ccc(Cl)cc32)c1C,79.9
21,CCN(CCCc1ccccc1)CCCc1ccccc1 [Alverine citrate salt],88.8
22,COc1cc2c(cc1OC)CN(CCc1ccc(NC(=O)c3cccc4c(=O)c5cccc(OC)c5[nH]c34)cc1)CC2 [Elacridar],108
23,CCn1c(-c2nonc2N)nc2cnc(Oc3cccc(NC(=O)c4ccc(OCCN5CCOCC5)cc4)c3)cc21,77.5
24,CC[C@]1(O)C[C@@H]2CN(CCc3c([nH]c4ccccc34)[C@@](C(=O)OC)(c3cc4c(cc3OC)N(C)[C@H]3[C@@](O)(C(=O)OC)[C@H](OC(C)=O)[C@]5(CC)C=CCN6CC[C@]43[C@@H]65)C2)C1 [Vinblastine],100
25,CC[C@]1(O)C[C@@H]2CN(CCc3c([nH]c4ccccc34)[C@@](C(=O)OC)(c3cc4c(cc3OC)N(C)[C@H]3[C@@](O)(C(=O)OC)[C@H](OC(C)=O)[C@]5(CC)C=CCN6CC[C@]43[C@@H]65)C2)C1 [Vinblastine sulfate],16.8
